The source of these data is the RNAGym collection of RNA variant scans (doi:10.7554/elife.90254).

To fix the notation:
B1: LINE1-full (parent)
chain: UACGUAGGUGGUUUUCCCCUGAUAGUGCUAAGGGGGCCUGGAAGUUUGGACUGGGCAGAGCUCAACACAGCGUGGCAAAGUGGCUGUGGCUAGACUGCCUCUCUGGAUUCCUCGUCACUCAGCAGGGCAUCUCUGAGAGAAAUGCC

The source gives no read counts; variants with many changes may rest on few reads.

This series covers variants of B1. The series can be described thus: self-cleavage, relative activity (ratio to wild type); higher = more cleavage; in vitro, sequencing; the parent is a self-cleaving ribozyme.
U47A U100G A124U: the self-cleavage was found to be 0.8.

Regarding A50C A107G G114A A124C A141G, the self-cleavage is 2.17.

Regarding U47A A64C A121U A142U, the self-cleavage is 0.23.

Take U47C A50C A65U A141G: the self-cleavage stood at 0.

As for U46G A79G U87C G106A U109C, the self-cleavage was 0.

As for A50G A92G U112A, the self-cleavage was 0.46.

Consider A50G U112A A141G, for which the self-cleavage is 0.

As to A50G U73A A140G, the self-cleavage was found to be 1.25.

In the case of U47C A94G U96A, the self-cleavage amounted to 0.3.

For A50G U73C A121U, the self-cleavage was 0.

With A50G U73C A121C, the self-cleavage is 0.

As to U46G A50U U81A U96C A141G, the self-cleavage was determined as 0.

Take U47C G55A U134C: the self-cleavage came to 1.15.

Take U47G U102A G105A: the self-cleavage came to 0.22.

Consider G48A A78G A124G, for which the self-cleavage came out at 0.74.

With U47C G54U A117G U130C, the self-cleavage amounted to 1.53.

On to U47C A69G U115A, for which the self-cleavage came to 0.66.

As for A50G U112C G122A, the self-cleavage is 1.18.

For the variant U46C U85C A117U A121U U134G A136G, the self-cleavage was 0.77.

On to U46G A65G C90A U130A A140G, for which the self-cleavage came to 0.04.

Regarding U47A G74A A124G, the self-cleavage came out at 0.61.

U47A U81A U85A U96A U115C: the self-cleavage worked out at 0.05.

Turning to A50G U85A G97A A107U U109A, the self-cleavage came out at 0.

Consider G48U U100C U119G, for which the self-cleavage worked out at 2.44.

On to G49U A79G U119A U134C, for which the self-cleavage is 1.25.

In the case of U47C U119C A121G, the self-cleavage is 0.97.

As to A50U C131G U134G, the self-cleavage was found to be 1.49.

Take A50G A64U A77G: the self-cleavage was 0.95.

Take G48A U52A U96C: the self-cleavage amounted to 0.1.

With U47C U73A U115C, the self-cleavage turned out to be 2.34.

With A50G U115C C120U, the self-cleavage was 2.09.

As for U47C A69G U130C, the self-cleavage was found to be 0.97.

Consider U47A U52A G58U A92G, for which the self-cleavage was 0.05.

As to U47C U109A A117C, the self-cleavage is 1.22.

Regarding U47A A65C U109A, the self-cleavage was 0.05.

In the case of U47C G114A A142G, the self-cleavage turned out to be 1.4.

With U46C U62A A136G, the self-cleavage was determined as 0.04.

Regarding G48A A77G A140G, the self-cleavage was 1.34.

As for A50G U73A U130C A136G, the self-cleavage is 0.89.

With U46C U73A A78G G86A, the self-cleavage came out at 0.06.

Take U47A A69G A77U A79U: the self-cleavage turned out to be 0.47.

Turning to U47C G55A A141G, the self-cleavage amounted to 0.59.

Take C51U A64G U104A: the self-cleavage was found to be 0.28.

Turning to A50U A79G U100C, the self-cleavage turned out to be 0.2.

Turning to C51U G106A A142G, the self-cleavage amounted to 1.38.

On to U46C G75A G97A U100A A138G, for which the self-cleavage was 0.75.

Regarding U46C A129G U143C, the self-cleavage was determined as 2.12.

Regarding A50U A64U A117U A140G, the self-cleavage was 0.48.

Regarding A50G A65G A142G, the self-cleavage stood at 0.

As for U47C A124G A138G, the self-cleavage is 2.03.

With U47A G53A A59G U134C, the self-cleavage is 0.11.

G48U U134C A141G: the self-cleavage was found to be 1.37.

Turning to A50U A140G A142G, the self-cleavage is 1.05.

In the case of U47A A77C A94G, the self-cleavage was found to be 0.

Regarding A50G U91C A142G, the self-cleavage was found to be 0.77.

G49U A59G U62C U73C U87C: the self-cleavage was determined as 0.

Take G49A U102C C111U A117G A121U: the self-cleavage is 1.1.

On to A50G U102C U112A, for which the self-cleavage turned out to be 1.53.

A50G A77U G127U: the self-cleavage was 0.81.

Turning to U46C U73A U81C, the self-cleavage is 1.69.

As for A50G U62C U102C U109A A140G, the self-cleavage was found to be 0.

Regarding U46C A107U A140U, the self-cleavage was found to be 1.54.

With U47C G55A G122C, the self-cleavage turned out to be 1.11.

Turning to A50G A107G C116A U134C, the self-cleavage came to 1.09.

With U46C U130C U134A, the self-cleavage came out at 1.22.

For the variant U46C A124G U132C, the self-cleavage was found to be 1.5.

In the case of A50U A65G U104C, the self-cleavage came to 0.08.

Take A50U A65G U104A: the self-cleavage was determined as 0.03.

For U47C U96A A141G, the self-cleavage is 0.19.

For the variant U47C G70A U112G, the self-cleavage came out at 0.15.

In the case of A50G C120U A138G, the self-cleavage turned out to be 1.62.

U46C C63U A77C U130C: the self-cleavage is 0.18.

For the variant C51A U100A A124C, the self-cleavage is 1.75.

Turning to G49U U81C U134C, the self-cleavage was 2.72.

For U47A U100C U134G, the self-cleavage came out at 2.38.

Consider A50G U108A U134C A140G, for which the self-cleavage was found to be 0.8.

In the case of U47C A124U U132C, the self-cleavage was 1.61.

G48A A57U A94G G135U: the self-cleavage is 0.03.

Take A50U U109A A117G G127A: the self-cleavage was 0.

For the variant U47A U81G U85C, the self-cleavage was 0.12.

Regarding U47C U132C A140G, the self-cleavage is 0.68.

In the case of U47C A78G U87A, the self-cleavage stood at 0.07.

Turning to U52A A57G A117G U130A, the self-cleavage was found to be 1.38.

On to U47A A124G A141U, for which the self-cleavage came out at 0.75.

As for A50U A57G A59G, the self-cleavage was found to be 0.14.

On to U46C U102A U119C U134A, for which the self-cleavage was found to be 1.79.

As to U47C C68U A69G C101U A140U, the self-cleavage amounted to 0.15.

For A50U G72C U104A U119C, the self-cleavage came out at 0.6.

G49U U87C U143C: the self-cleavage was found to be 0.12.

For A50G A69G U109A, the self-cleavage is 1.2.

Regarding U46C U87C G139A, the self-cleavage came out at 0.63.

With G48A G135U U143C, the self-cleavage is 0.33.

Consider U47A U112G A140G, for which the self-cleavage was 0.5.

With U47G A67G A124U A142G, the self-cleavage is 0.28.

As to U52A A57U U119C, the self-cleavage was determined as 0.09.

With C51A U73C A77G, the self-cleavage worked out at 1.19.

Consider A50U G72A A117U U143A, for which the self-cleavage was found to be 1.06.

For the variant G48U A77U U96A A138G, the self-cleavage stood at 0.

For U47A G93A U132G, the self-cleavage is 0.03.

In the case of A50G A69G U102A, the self-cleavage came out at 0.

As for A50U A64G A140G, the self-cleavage is 0.27.

Regarding A50U U81C A94U C98A, the self-cleavage amounted to 0.13.

For U47C A59G A121G, the self-cleavage was found to be 0.

For U47C A69G G137U, the self-cleavage is 0.38.

Turning to G48A A79U U85C, the self-cleavage worked out at 0.09.

In the case of U47C A117G U134A U143C, the self-cleavage was determined as 1.71.

As to G48A A78U U85C U108C, the self-cleavage stood at 0.18.

Regarding U47A A67U G93U A107G A117G, the self-cleavage was 0.

Consider U46C G125A A129G, for which the self-cleavage is 2.43.

U47A A67U G105U A117C A140G: the self-cleavage worked out at 0.33.

Take U47C A65U U134C: the self-cleavage came out at 0.36.

For U46C G48A U134C, the self-cleavage is 1.7.

With U47C G88U U96C A140G, the self-cleavage was 0.28.

Consider C51U C76U A77U, for which the self-cleavage came out at 1.63.

Consider U47C A57U G83A A107G, for which the self-cleavage was 0.04.

As to U47C U73C A138G, the self-cleavage amounted to 2.06.

As for U47A U130C A140G, the self-cleavage stood at 2.09.

Turning to U47G U62A U81C, the self-cleavage is 0.

For U46C U47A A79U, the self-cleavage was found to be 1.59.

With U47C U104A U115C, the self-cleavage came out at 0.25.

With A50G U62C A69U, the self-cleavage came out at 0.09.

With C51U U108C C131A, the self-cleavage came to 1.84.

C51U U119C A140C: the self-cleavage worked out at 1.52.

For C51U A79G A141G, the self-cleavage worked out at 2.03.

As for U47C A78G U81A, the self-cleavage was 0.56.

Take A50U U62C A77U A94G: the self-cleavage worked out at 0.04.

For the variant A50G A67U U143A, the self-cleavage is 0.09.

In the case of U52A A64G U73C G89U G97A, the self-cleavage stood at 0.02.

Take A50G A94U U112A: the self-cleavage worked out at 0.23.

In the case of U47C A50G A59G A121U A136U A138G, the self-cleavage turned out to be 0.71.

Consider C51U A77G U112C, for which the self-cleavage came out at 1.15.

For C51U A117G A140U U143C, the self-cleavage is 1.94.

With U47C A57G U62C A141G, the self-cleavage stood at 0.38.

U47A U81C U96C: the self-cleavage was found to be 0.05.

Regarding U46C U85A G97A, the self-cleavage was found to be 0.18.

For U46C U134A C145A, the self-cleavage came out at 1.27.

With A50G A138G A141G, the self-cleavage turned out to be 0.44.

Regarding U46C U73C C98U, the self-cleavage was found to be 1.01.

For U47A G75C U108C, the self-cleavage is 1.14.

As for A50G G58C A65G U134A, the self-cleavage is 0.2.

For the variant U46C U109C A129G A141G, the self-cleavage was 2.3.

U47G A79G A142G: the self-cleavage worked out at 0.9.

On to G48A U87G U96A A141G, for which the self-cleavage was 0.05.

For U47A U109C A140G, the self-cleavage was 0.46.

On to U47C A67G U73A U109C A121U A141G, for which the self-cleavage stood at 0.41.

On to U47A A57G G93A U104G U112C, for which the self-cleavage was determined as 0.16.

With U47A A67G A94U, the self-cleavage turned out to be 0.02.

For U47A A65G A69G A124U U130C C145U, the self-cleavage was found to be 0.18.

With U47C U96A U112C, the self-cleavage is 0.04.

For the variant U47C G93A U130C, the self-cleavage is 0.05.

For A50G U62C A79G, the self-cleavage came out at 0.

With U52A A57G G72U G114A, the self-cleavage was found to be 0.48.

A50G A129U A141G: the self-cleavage is 0.95.

On to A50U A57G A77G U109A, for which the self-cleavage came to 0.87.

As to U47A U52C A92G U108C, the self-cleavage came to 0.42.

Turning to U47C U108A C131U, the self-cleavage is 1.73.

As to U47A A64U A94C A141G, the self-cleavage was 0.07.

U47C A69G U73A: the self-cleavage amounted to 0.47.

For the variant U46C G70A A107G U119C, the self-cleavage is 0.3.

With U47A A59G U73C, the self-cleavage worked out at 0.

With G49U C51U A67G U73C U132C, the self-cleavage amounted to 0.2.

U47C U73A G125A: the self-cleavage turned out to be 1.78.

On to U46C U119C A124U, for which the self-cleavage worked out at 1.9.

On to A50U G53A A136U, for which the self-cleavage is 0.22.

On to U46C U52C A59U U96C, for which the self-cleavage came to 0.

Take G48A U102C U108C: the self-cleavage worked out at 1.12.

As for U47A U62C U104C U119A, the self-cleavage was found to be 0.03.
